Assay results from the supplement of paper PMC3334620.
Whole data set: some 33,000 sequences, median “E-score (-0.5 to 0.5)” near -0.035, cut for the highest 2% near 0.35. This is one part of the list.

These sequences were tested against T1, Pdr3 (UniProt P33200) (assay: PBM E-score (8-mer binding enrichment) (E-score (-0.5 to 0.5)); higher = stronger / more preferred TF binding; most listed sequences are background and not binding sites). Details: protein concentration: 200 nM; construct: GST-full length.
T1 sequence: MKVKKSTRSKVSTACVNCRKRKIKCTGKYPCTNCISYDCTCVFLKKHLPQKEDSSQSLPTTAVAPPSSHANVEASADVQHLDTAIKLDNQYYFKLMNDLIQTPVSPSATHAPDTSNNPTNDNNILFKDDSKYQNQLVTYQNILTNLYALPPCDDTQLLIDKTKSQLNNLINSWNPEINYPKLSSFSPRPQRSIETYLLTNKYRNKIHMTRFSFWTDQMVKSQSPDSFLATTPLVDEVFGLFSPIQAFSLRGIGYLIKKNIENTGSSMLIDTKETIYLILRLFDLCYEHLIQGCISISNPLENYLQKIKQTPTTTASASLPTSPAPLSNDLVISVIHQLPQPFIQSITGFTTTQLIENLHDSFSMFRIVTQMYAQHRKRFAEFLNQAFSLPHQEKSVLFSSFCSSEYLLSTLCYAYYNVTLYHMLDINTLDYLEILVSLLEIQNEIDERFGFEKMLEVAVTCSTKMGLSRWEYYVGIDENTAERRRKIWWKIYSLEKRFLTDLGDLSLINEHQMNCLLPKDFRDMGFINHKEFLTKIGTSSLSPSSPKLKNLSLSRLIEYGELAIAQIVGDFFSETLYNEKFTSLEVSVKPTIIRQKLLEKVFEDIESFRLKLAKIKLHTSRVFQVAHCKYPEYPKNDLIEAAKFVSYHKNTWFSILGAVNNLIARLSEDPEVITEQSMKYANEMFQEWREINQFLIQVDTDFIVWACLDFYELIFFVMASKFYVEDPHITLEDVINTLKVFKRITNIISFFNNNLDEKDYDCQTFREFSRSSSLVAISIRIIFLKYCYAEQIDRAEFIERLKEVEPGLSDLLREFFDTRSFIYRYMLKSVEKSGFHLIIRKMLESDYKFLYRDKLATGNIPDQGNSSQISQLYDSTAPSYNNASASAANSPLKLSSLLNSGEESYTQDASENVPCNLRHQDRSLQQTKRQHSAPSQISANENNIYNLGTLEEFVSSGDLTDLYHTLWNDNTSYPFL
Method in brief: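 E-scores (a modified Wilcoxon-Mann-Whitney statistic) were assigned by the Universal PBM Analysis Suite to every ungapped eight-base word pooled with its reverse complement. The input came from universal all-10-mer Agilent arrays made double-stranded by primer extension and probed with GST-tagged yeast transcription factors at about 100-200 nM. Fluorescent anti-GST detected bound protein, and masliner normalised the scans.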

Row | Sequence | PBM E-score
1 | AGGACTGG | -0.184
2 | CCACAGCC | -0.0745
3 | CCCAGTCC | 0.0107
4 | CCCACTGA | -0.0507
5 | CACAAAGG | -0.09
6 | AGCAGACA | -0.21
7 | ACGGACAT | 0.351
8 | GTGCTTAA | -0.0262
9 | CCAGAAGG | -0.0321
10 | ACATTTTC | 0.203
11 | GACCTCCC | 0.0331
12 | TAGGATAA | -0.0443
13 | CGCTAACC | -0.00491
14 | ATCGTCAC | -0.129
15 | TCGGGGCA | 0.151
16 | TCATCGGA | 0.279
17 | ACCTAATA | 0.0374
18 | GGACATGA | 0.185

Row | Sequence | PBM E-score
19 | ATCCTAAA | -0.297
20 | ACAACTAA | 0.0577
21 | GCAAGTCA | -0.0335
22 | ACTGACAA | -0.0515
23 | TAGCGACA | -0.171
24 | CACCAGAG | -0.137
25 | AGTTTTAG | -0.128
26 | GTTACTTA | -0.0658
27 | GCGCCCGA | 0.214
28 | AAGACGCA | -0.105
29 | AGGAAGAC | -0.246
30 | ACACGATG | -0.116
31 | GGTATAAC | -0.0726
32 | ACGCCTCA | -0.143
33 | ATCGGCGC | 0.178
34 | GCATTAAC | 0.103
35 | AAATAAGG | 0.0971
36 | AGCTCCAC | 0.0117
